# Reference: the supplement of paper PMC9433436
# ± gives the standard deviation of the averaged measurements. In all, about 4,100 sequences were measured (“relative kcat/Km (krel) vs genomic leader AAAGAU”: median about 1.7, highest 2% from about 6.5 on). The list shows a part of the results, in another mix than the full data.
# Biological target: T1, E. coli RNase P holoenzyme (M1 P RNA + rnpA protein) (UniProt P0A7Y8)
# T1 sequence: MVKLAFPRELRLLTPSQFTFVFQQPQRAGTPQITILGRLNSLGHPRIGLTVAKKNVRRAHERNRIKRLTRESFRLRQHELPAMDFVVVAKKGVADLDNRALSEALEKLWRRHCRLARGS
# Assay: relative kcat/Km (krel) vs genomic leader AAAGAU (relative (reference leader = 1)); higher = faster RNase P cleavage
# Method in brief: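 A precursor tRNA-Met pool randomized at leader positions −6 to −1 was cleaved by E. coli RNase P holoenzyme (P RNA plus C5 protein) under multiple-turnover conditions at 37 °C in 50 mM Tris-HCl pH 8, 100 mM NaCl, 17.5 mM MgCl2. Unreacted precursor was gel-purified at ~5–30% conversion, converted to cDNA libraries and Illumina-sequenced. Relative kcat/Km (krel) was calculated by internal competition kinetics from read ratios, normalised to the genomic leader, averaging two technical replicates.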
# [1] = fraction of substrate reacted: ~9-10% (9.79% repeat 1, 9.1% repeat 2)
# [2] = fraction of substrate reacted: ~13-16% (15.68% repeat 1, 13.17% repeat 2)
# [3] = fraction of substrate reacted: ~26-29% (28.66% repeat 1, 26.4% repeat 2)
Sequence,relative kcat/Km [1],relative kcat/Km [2],relative kcat/Km [3]
AGACAC,3.91 ± 1.7,3.32 ± 0.35,5.36 ± 2.2
TTTCTT,2.88 ± 0.89,3.19 ± 0.66,4.13 ± 2
GACCTA,2.84 ± 0.65,2.44 ± 0.3,4.1 ± 1.9
GCTTTG,,,1.02 ± 0.31
GCATTT,1.21 ± 0.41,1.62 ± 0.22,2.86 ± 1.4
GCAATT,,0.851 ± 0.064,1.21 ± 0.26
CCCCCA,2.81 ± 1.5,1.96 ± 1.4,2.81 ± 0.61
TGCGGC,1.13 ± 0.11,0.994 ± 0.7,1.3 ± 1.3
CTGATT,1.39 ± 1.1,0.779 ± 0.094,1.64 ± 0.079
AGAAGC,2.58 ± 0.84,2.32 ± 0.46,2.38 ± 0.49
AATATG,,,1.5 ± 0.39
GCGTAT,1.96 ± 0.3,2.88 ± 0.95,3.37 ± 1.6
CGTCGC,2.49 ± 0.74,3.77 ± 0.95,4.81 ± 1.1
ACAAGC,2.64 ± 1,1.72 ± 0.14,2.4 ± 0.85
TAATGA,3.46 ± 0.8,3.74 ± 0.99,5.9 ± 2.9
GGCCGT,,,1.79 ± 1.4
AATGCA,,0.565 ± 0.21,0.83 ± 0.33
TAATTT,2.75 ± 0.56,3.44 ± 0.72,4.51 ± 2.3
GATTCA,1.24 ± 0.39,1.75 ± 0.35,2.73 ± 1
TCACGA,1.94 ± 0.45,2.34 ± 0.65,3.59 ± 1.2
TTGGAT,0.034 ± 0.0085,,
TTTAGG,,0.392 ± 0.28,1.54 ± 0.42
GCGGTC,,,0.95 ± 0.64

Sequence,relative kcat/Km [1],relative kcat/Km [2],relative kcat/Km [3]
CACCCA,1.51 ± 0.24,1.47 ± 0.73,2.44 ± 1
ACCTAG,2.77 ± 2.8,2.93 ± 0.56,4.27 ± 0.99
ATTACT,2.16 ± 1.3,2.22 ± 0.19,3.03 ± 0.91
AACATT,2.96 ± 1.9,3.2 ± 0.1,4.74 ± 1.8
CGCCCG,0.881 ± 0.6,0.514 ± 0.2,1.58 ± 0.21
CTATGC,2.9 ± 0.096,3.48 ± 0.63,5.18 ± 2.4
ATCGCT,2.5 ± 0.7,2.34 ± 0.31,3.27 ± 0.6
ATTCAA,2.88 ± 2.4,3.06 ± 0.28,3.93 ± 1.2
TCATTG,,0.158 ± 0.11,1.45 ± 0.15
AAGAAG,,,1.01 ± 0.43
GCGCGC,1.18 ± 0.45,0.806 ± 0.69,1.61 ± 0.44
TGGTGA,,0.491 ± 0.45,0.727 ± 0.34
AGGGGG,,,1.11 ± 1
TCGTAT,4.13 ± 0.92,4.78 ± 0.97,
AACCTC,3.13 ± 1.3,2.12 ± 0.18,2.98 ± 0.97
CTTGTT,1.35 ± 0.26,1.04 ± 0.14,1.23 ± 0.9
TGCCTT,1.96 ± 0.64,2.66 ± 0.59,3.59 ± 1.3
CAATGG,,0.462 ± 0.11,0.702 ± 0.35
TCGCGG,1.27 ± 0.89,,0.735 ± 0.24
ATCTCT,3.47 ± 1.2,4.36 ± 0.18,6.18 ± 2.7
TCCGGT,,,2.26 ± 0.87
TCCCAT,4.48 ± 2.4,5.74 ± 1,
TTCATG,2 ± 2,2.08 ± 0.48,4.3 ± 1.5

Sequence,relative kcat/Km [1],relative kcat/Km [2],relative kcat/Km [3]
GGCATC,1.73 ± 0.36,2.09 ± 0.48,2.42 ± 0.71
GAGGTA,0.0777 ± 0.05,,
ATGATG,,,0.888 ± 0.43
TGACGA,2.18 ± 0.17,3.63 ± 0.68,4.71 ± 2
TGCAAC,1.87 ± 0.58,1.45 ± 0.22,2.22 ± 0.84
CGATGA,2.79 ± 1.8,3.53 ± 0.96,4.87 ± 1.1
GTTCCG,,0.359 ± 0.011,1.45 ± 0.11
TTATAC,4.34 ± 1.3,5.2 ± 0.6,
ATTCTA,2.57 ± 2.1,2.17 ± 0.23,2.44 ± 0.73
TGGCCA,1.16 ± 0.33,0.745 ± 0.48,0.607 ± 0.14
AGATCT,2.62 ± 0.94,3.06 ± 0.29,3.7 ± 1.1
AGCGCG,,,0.992 ± 0.79
TTACCG,,,0.935 ± 0.42
CCCGGT,,,1.83 ± 1.5
ATCGAC,3.59 ± 0.99,4.75 ± 0.93,6.92 ± 2
ACACGT,0.923 ± 0.34,,
GATCCG,,0.5 ± 0.42,0.972 ± 0.15
GATCCT,1 ± 0.31,2.073 ± 0.0024,2.32 ± 0.89
CGACGT,,2.25 ± 1.1,2.36 ± 1.5
GATATT,1.6 ± 0.053,1.73 ± 0.22,3.18 ± 1.4
CCTACT,1.32 ± 0.44,,1.47 ± 0.11
GGCATA,2.07 ± 0.64,1.92 ± 0.11,2.28 ± 1
